No constants are given. Whether binding was seen depends on the method and setting. Binding seen in cells or lysates may run through a third protein. Some binding calls cover weakened binding; strength is not graded here. Tags and fused reporters may be left off the sequences shown.
T1: COX11-FLAG (human) (UniProt Q9Y6N1)
T1 sequence: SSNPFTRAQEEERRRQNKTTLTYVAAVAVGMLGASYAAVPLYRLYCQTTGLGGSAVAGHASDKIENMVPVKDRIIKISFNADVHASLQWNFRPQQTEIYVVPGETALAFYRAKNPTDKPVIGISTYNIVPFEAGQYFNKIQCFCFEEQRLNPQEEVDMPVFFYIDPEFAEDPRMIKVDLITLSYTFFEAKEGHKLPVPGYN

T2: COX11 C219D-FLAG (human) (UniProt Q9Y6N1)
T2 sequence: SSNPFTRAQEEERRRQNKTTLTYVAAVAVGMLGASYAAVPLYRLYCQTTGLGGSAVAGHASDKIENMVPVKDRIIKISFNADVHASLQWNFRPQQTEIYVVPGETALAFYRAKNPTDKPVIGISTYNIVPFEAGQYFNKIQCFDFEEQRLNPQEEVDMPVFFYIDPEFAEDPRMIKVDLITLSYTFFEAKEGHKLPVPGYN

T3: SCO2-FLAG (human) (UniProt O43819)
T3 sequence: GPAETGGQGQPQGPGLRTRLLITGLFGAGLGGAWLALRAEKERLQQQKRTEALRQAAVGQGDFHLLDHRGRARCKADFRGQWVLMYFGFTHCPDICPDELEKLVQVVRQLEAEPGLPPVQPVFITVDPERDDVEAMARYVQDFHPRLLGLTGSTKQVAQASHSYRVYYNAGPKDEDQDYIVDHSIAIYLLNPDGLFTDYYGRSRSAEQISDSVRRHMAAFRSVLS

T4: COX17-FLAG (human) (UniProt Q14061)
T4 sequence: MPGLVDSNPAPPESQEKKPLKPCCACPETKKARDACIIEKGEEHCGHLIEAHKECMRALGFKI

T5: SCO1-FLAG (human) (UniProt O75880)
T5 sequence: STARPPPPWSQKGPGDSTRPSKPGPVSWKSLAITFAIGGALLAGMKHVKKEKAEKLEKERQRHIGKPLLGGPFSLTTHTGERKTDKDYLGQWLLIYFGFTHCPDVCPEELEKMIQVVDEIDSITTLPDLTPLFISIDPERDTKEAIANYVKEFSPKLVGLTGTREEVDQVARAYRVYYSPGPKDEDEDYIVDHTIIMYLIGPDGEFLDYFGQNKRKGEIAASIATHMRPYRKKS

T6: COX16-FLAG (human) (UniProt Q9P0S2)
T6 sequence: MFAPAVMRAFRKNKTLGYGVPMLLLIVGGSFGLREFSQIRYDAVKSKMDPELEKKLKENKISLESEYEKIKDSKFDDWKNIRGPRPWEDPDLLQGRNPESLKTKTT

T7: PET191-FLAG (human) (UniProt Q86WW8)
T7 sequence: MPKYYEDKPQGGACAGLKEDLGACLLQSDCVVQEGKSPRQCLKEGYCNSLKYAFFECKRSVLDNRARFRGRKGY

T8: COX19-FLAG (human) (UniProt Q49B96)
T8 sequence: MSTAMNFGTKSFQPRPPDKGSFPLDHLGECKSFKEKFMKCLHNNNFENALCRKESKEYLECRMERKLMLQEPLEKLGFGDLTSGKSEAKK

T9: PET191(C30A, C41A)-FLAG (human) (UniProt Q86WW8)
T9 sequence: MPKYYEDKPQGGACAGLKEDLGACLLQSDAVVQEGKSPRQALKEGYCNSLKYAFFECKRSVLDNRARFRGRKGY


Assays:
[1] = molecular target: T1, COX11-FLAG (human); assay: co-IP; stable interactions: mitochondria without crosslinker (DMSO vehicle), extracted in PBS, 0.4% DDM, anti-FLAG beads 4 h at 4 C, five washes in PBS 0.05% DDM, immunoblotting; for COX11-COX19 also after pre-incubation of mitochondria with 5 mM GSH
[2] = molecular target: T2, COX11 C219D-FLAG (human); assay: as above
[3] = molecular target: T3, SCO2-FLAG (human); assay: cross-linking + co-IP; transient interactions: mitochondria treated with 1 mM DSP 1.5 h at 4 C (DMSO as vehicle control), quenched with 10 mM Tris-HCl, extracted in PBS, 0.4% DDM, anti-FLAG beads, immunoblotting for 13 candidate proteins; also in KO backgrounds and after chloramphenicol treatment
[4] = molecular target: T1, COX11-FLAG (human); assay: as above
[5] = molecular target: T4, COX17-FLAG (human); assay: as above
[6] = molecular target: T5, SCO1-FLAG (human); assay: as above
[7] = molecular target: T6, COX16-FLAG (human); assay: as above
[8] = molecular target: T2, COX11 C219D-FLAG (human); assay: as above
[9] = molecular target: T7, PET191-FLAG (human); assay: as above
[10] = molecular target: T8, COX19-FLAG (human); assay: co-IP; stable interactions: mitochondria without crosslinker (DMSO vehicle), extracted in PBS, 0.4% DDM, anti-FLAG beads 4 h at 4 C, five washes in PBS 0.05% DDM, immunoblotting; for COX11-COX19 also after pre-incubation of mitochondria with 5 mM GSH
[11] = molecular target: T8, COX19-FLAG (human); assay: cross-linking + co-IP; transient interactions: mitochondria treated with 1 mM DSP 1.5 h at 4 C (DMSO as vehicle control), quenched with 10 mM Tris-HCl, extracted in PBS, 0.4% DDM, anti-FLAG beads, immunoblotting for 13 candidate proteins; also in KO backgrounds and after chloramphenicol treatment
[12] = molecular target: T9, PET191(C30A, C41A)-FLAG (human); assay: as above

Row | Binder | binding [1] | binding [2] | binding [3] | binding [4] | binding [5] | binding [6] | binding [7] | binding [8] | binding [9] | binding [10] | binding [11] | binding [12]
1 | SURF1 (protein, UniProt Q15526 1-300) MAAVAALQLGLRAAGLGRAPASAAWRSVLRVSPRPGVAWRPSRCGSSAAEASATKAEDDSFLQWVLLLIPVTAFGLGTWQVQRRKWKLNLIAELESRVLAEPVPLPADPMELKNLEYRPVKVRGCFDHSKELYMMPRTMVDPVREAREGGLISSSTQSGAYVVTPFHCTDLGVTILVNRGFVPRKKVNPETRQKGQIEGEVDLIGMVRLTETRQPFVPENNPERNHWHYRDLEAMARITGAEPIFIDANFQSTVPGGPIGGQTRVTLRNEHLQYIVTWYGLSAATSYLWFKKFLRGTPGV | binds | binds | binds | binds | no binding | binds | binds | binds | no binding |  |  | 
2 | COX11 (endogenous) (protein, UniProt Q9Y6N1 76-276) SSNPFTRAQEEERRRQNKTTLTYVAAVAVGMLGASYAAVPLYRLYCQTTGLGGSAVAGHASDKIENMVPVKDRIIKISFNADVHASLQWNFRPQQTEIYVVPGETALAFYRAKNPTDKPVIGISTYNIVPFEAGQYFNKIQCFCFEEQRLNPQEEVDMPVFFYIDPEFAEDPRMIKVDLITLSYTFFEAKEGHKLPVPGYN |  |  | binds |  |  | binds | binds |  | binds | binds | binds | binds

— article PMC9232578
